Measurements taken from PubChem BioAssay AID686978 (National Center for Advancing Translational Sciences (NCATS), 2013).
Values joined by “and” are separate entries in the source; they are usually repeats but may differ in a detail not shown here. Equal values may be shown once. In all, about 420,000 compounds went through this assay and about 64,000 (15%) were called active. The inconclusive results got no clear call from the source; some entries with a clear call stand among them for comparison. Calls come from the whole dose curve; as a rule, active = well fitted inhibition curve with a large enough effect; inconclusive = small, poorly fitted or top-dose-only effect; inactive = flat fitted curve, though single readings scatter. Where the call is inconclusive, the potency comes from a doubtful curve fit.

Experiment: qHTS for Inhibitors of human tyrosyl-DNA phosphodiesterase 1 (TDP1): qHTS in cells in absence of CPT; note: nearly all actives have a fitted effect of over 55% in size
Conditions: DT40 Tdp1-/- hTDP1 cells, no CPT, ATP luminescence, 48 h; activity change, negative = growth inhibition: at 46.2 µM (top of the series) unless noted
How it was run: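 Compound effects on proliferation are scored in DT40 Tdp1-/-;hTDP1 cells in the absence of CPT. ATP levels (CellTiter-Glo luminescence) are recorded after a ≥48 hr, 37 °C incubation.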
% is set by controls: 0 for no effect and ±100 for the full control effect; potency is the fitted concentration of half-maximal effect; tags give direction and shape of the fitted curve.

Row | Compound | activity change, negative = growth inhibition | Potency
1 | O=C(NNC(=O)C1CCCN(c2ncccn2)C1)c1ccncc1 (configuration not stated) | inactive: 9.14% | 
2 | CC(c1ccccc1)N1CCn2c(nc3cc(NC(=O)c4cccs4)ccc32)C1 (configuration not stated) |  | inconclusive: 18.4 µM [inhibitor, partial curve]
3 | CC(C)c1ccc(NC(=O)CNS(=O)(=O)c2ccc(F)cc2)cc1 |  | active: 11.6 µM
4 | Cc1ccc(SCC(=O)NNC(=O)c2ccccc2)c(C)c1 |  | inconclusive: 23.1 µM [inhibitor, partial curve]
5 | COC(=O)c1[nH]c2ccc(F)cc2c1NC(=O)Nc1ccc(OC)cc1 |  | active: 6.51 µM
6 | CCc1ccc(NC(=O)Cn2nnc(C(=O)NCc3ccco3)c2N)cc1 |  | inactive
7 | COc1ccccc1-c1c(C)nn2c(N3CCC(C)CC3)cc(C)nc12 |  | inconclusive: 25.9 µM [inhibitor, single point]
8 | CC(=O)Nc1ccc(NC(=O)C2CCCCN2S(=O)(=O)c2ccc(C(C)(C)C)cc2)cc1 (configuration not stated) |  | inconclusive: 20.6 µM [inhibitor, single point]
9 | COc1ccc(CN(C(=O)Nc2ccc(C)c(F)c2)C2CCN(C(C)=O)CC2)cc1 | inactive: -10.3% | 
10 | CCCc1cc(C(=O)N2CCN(C(c3ccccc3)c3ccccc3)CC2)no1 |  | inconclusive: 29.1 µM [inhibitor, single point]
11 | Cc1cccc(C)c1NC(=O)CN(C)C(=O)c1ccccc1Sc1ccccc1C#N |  | inconclusive: 23.1 µM [inhibitor, single point]
12 | CCOC(=O)c1c2n(c3ccc(O)cc13)CCCCC2 |  | inconclusive: 29.1 µM [inhibitor, single point]
13 | CC(NCc1ccccc1O)C12CC3CC(CC(C3)C1)C2 (configuration not stated) |  | inconclusive: 23.1 µM [inhibitor, single point]
14 | CNC(=O)c1cc2n(n1)CCCN(Cc1ccc(F)cc1)C2=O |  | inconclusive: 20.6 µM [inhibitor, single point]
15 | O=C1C(c2ccc(F)cc2)N(CCc2ccccc2)C(=O)CN1C1CCCCC1 (configuration not stated) |  | inconclusive: 0.0082 µM [inhibitor, full curve, poor fit]
16 | Cc1ccc(C(=O)NCc2ccccn2)cc1NC1=NC2CS(=O)(=O)CC2S1 (configuration not stated) | inactive: -4.79% | 
17 | Cc1ccc(-c2nnn(CC(=O)N(Cc3ccco3)C(C(=O)NC(C)(C)C)c3ccc(C)o3)n2)o1 (configuration not stated) |  | active: 20.6 µM
18 | Cc1ccc(C(=O)c2ccccc2C(=O)OCC(=O)NCCc2ccc(Cl)cc2Cl)cc1 |  | inconclusive: 23.1 µM [inhibitor, single point]
19 | Cc1cnc(C)c(Nc2nc(C(N)c3ccccc3)cs2)n1 (configuration not stated) |  | inconclusive: 18.4 µM [inhibitor, single point]
20 | O=C(Nc1ccc(SC(F)F)cc1)c1ccc(F)cc1 | inactive: -3.01% | 
21 | CSc1ccc(CCNC(=O)c2cc3n(n2)CCCN(Cc2ccc(C)cc2)C3=O)cc1 |  | inconclusive: 7.31 µM [inhibitor, partial curve]
22 | CC(=O)c1ccc(NC(=O)CCc2c(C)nn(-c3ccc4nncn4n3)c2C)cc1 |  | inconclusive: 13 µM [inhibitor, partial curve]
23 | COc1ccc(NS(=O)(=O)c2ccc(C)c(C(=O)OC(C)C(=O)N3CCOCC3)c2)cc1 (configuration not stated) |  | inconclusive: 14.6 µM [inhibitor, partial curve]

Row | Compound | activity change, negative = growth inhibition | Potency
24 | CC(=O)c1ccc(OC2(C)CCN(Cc3ccc(OC(F)(F)F)cc3)C2)cc1 (configuration not stated) |  | inconclusive: 20.6 µM [inhibitor, single point]
25 | CC1(C)OC(=O)C(=Cc2ccc(-c3ccc(S(N)(=O)=O)cc3)o2)C(=O)O1 |  | inconclusive: 18.4 µM [inhibitor, single point]
26 | O=C(OCC(=O)N1CCOCC1)c1cccc(F)c1 | inactive: -14.2% | 
27 | Cc1ccc(CN(CC(=O)NCC2CCCO2)S(=O)(=O)c2ccc(C)cc2)cc1 (configuration not stated) |  | inconclusive: 25.9 µM [inhibitor, single point]
28 | COC(=O)C(Cc1cnc(Cl)s1)(C(=O)OC)c1ccc([N+](=O)[O-])cc1 |  | inconclusive: 23.1 µM [inhibitor, single point]
29 | CCCCC1(C)NC(=O)c2c(C)sc(C(=O)OCC)c2N1 (configuration not stated) |  | inconclusive: 20.6 µM [inhibitor, single point]
30 | COc1ccccc1C(=O)NC(=O)COC(=O)c1ccc([N+](=O)[O-])cc1Cl | inactive: 16.4% | 
31 | O=C(Nc1ccccc1-c1ccccc1)c1cccs1 |  | active: 23.1 µM
32 | CC1(C(=O)NS(=O)(=O)c2ccc(Br)cc2)CCN1C(=O)CCC1CCCC1 (configuration not stated) | inactive: -6.83% | 
33 | Cc1cccc(C)c1-n1c(C)cc(/C=C2\NC(=O)NC2=O)c1C |  | inconclusive: 16.4 µM [inhibitor, partial curve, poor fit]
34 | CCCN1CCC(NC(=O)CC2C(=O)NCCN2Cc2cccc(OC)c2)CC1 (configuration not stated) | inactive: 14% | 
35 | O=S(Cc1ccccc1)CC(O)(c1ccccc1)c1ccccc1 (configuration not stated) | inactive: -25.2% | 
36 | NC1=NC(c2ccccc2)CC(=O)N1 (configuration not stated) | inactive: -17.1% | 
37 | Cc1c(NC(=S)N/N=C/c2cc([N+](=O)[O-])ccc2O)c(=O)n(-c2ccccc2)n1C |  | inconclusive: 7.31 µM [inhibitor, partial curve]
38 | CC(C)(C)NC(=O)[C@H]1CC[C@H]2[C@@H]3CC=C4C=C(C(=O)O)CC[C@]4(C)[C@H]3CC[C@]12C |  | inconclusive: 29.9 µM [inhibitor, single point]
39 | O=C1/C(=C\c2ccc3ccccc3c2)CCCc2ccccc21 |  | inconclusive: 29.1 µM [inhibitor, single point]
40 | O=C(CCCSc1nc(-c2ccco2)cc(C(F)(F)F)n1)Nc1ccc2c(c1)OCO2 |  | active: 23.1 µM
41 | CC(C)C(OC(=O)C1=Cc2ccccc2OC1)C(=O)NC1CCCC1 (configuration not stated) |  | inconclusive: 25.9 µM [inhibitor, single point]
42 | CCC1CN(C(=O)N2CCC(C(=O)NCCOC)CC2)c2ccccc2O1 (configuration not stated) | inactive: -11.5% | 
43 | COC(=O)c1ccc(Cn2nc(-c3ccc(C)c(C)c3)ccc2=O)cc1 |  | inactive and inconclusive: 29.1 µM [inhibitor, single point]
44 | CC(C)c1ccc(NS(=O)(=O)c2ccc3[nH]c(=O)ccc3c2)cc1 |  | inconclusive: 29.1 µM [inhibitor, single point]
45 | O=C(Nc1ccc2oc(-c3ccccc3Cl)nc2c1)c1cncc(Br)c1 |  | active: 11.6 µM
46 | CCOC(=O)C(C)(C)N(Cc1cccc(C)c1)S(=O)(=O)c1ccc(Cl)c([N+](=O)[O-])c1 |  | active: 14.6 µM

Row | Compound | activity change, negative = growth inhibition | Potency
47 | CCOC(=O)c1cnc(SC)nc1Oc1cccc(NC(=O)c2ccc(Cl)cc2)c1 |  | active: 23.1 µM
48 | COc1cc(/C=C/C(=O)N2CCN(Cc3ccccc3)CC2)cc(OC)c1OC |  | active: 18.4 µM
49 | C#CCn1cc(/C=N/NC(=O)COc2cccc3cccnc23)c2ccccc21 |  | inconclusive: 29.1 µM [inhibitor, partial curve, poor fit]
50 | CC(C)(C)NC(=O)c1cccc(NC(=O)Cc2ccc(Br)cc2)c1 |  | inconclusive: 8.2 µM [inhibitor, partial curve, poor fit]
51 | O=C(NCCc1cccs1)Nc1ccc2nc([C@@H]3O[C@H](CO)[C@@H](O)[C@H]3O)[nH]c2c1 | inactive: -13.6% | 
52 | Cc1cc(C)n(-c2nc(NCCO)c3c4c(sc3n2)CCCC4)n1 |  | inconclusive: 29.1 µM [inhibitor, single point]
53 | Cc1cc(NC(=S)N(Cc2ccc(Br)cc2)Cc2ccc(C(=O)O)cc2)ccc1Cl |  | inconclusive: 29.1 µM [inhibitor, single point]
54 | Cc1cnc(C(=O)OC(C(=O)Nc2cc(C(F)(F)F)ccc2Cl)c2ccccc2)cn1 (configuration not stated) |  | inconclusive: 29.1 µM [inhibitor, single point]
55 | CN(CCOc1ccccc1)C(=O)c1ccc(Cl)c(S(=O)(=O)N2CCCCC2)c1 |  | inconclusive: 32.6 µM [inhibitor, single point]
56 | COc1cc(C(=O)Nc2nc(-c3cc(C)ccc3C)c(C)s2)ccc1OCC(=O)Nc1ccc(F)cc1 |  | inconclusive: 7.31 µM [inhibitor, partial curve]
57 | CCOC(=O)CCCCCC(=O)Nc1ccc2c(c1)C(=O)N([C@@H](C)CO)C[C@H](C)[C@H](CN(C)C(=O)c1ccccc1)OCCCC[C@H](C)O2 |  | inconclusive: 0.206 µM [inhibitor, full curve, poor fit]
58 | Cc1ccc(-c2nnn(CC(=O)N(Cc3ccco3)C(C(=O)NC(C)(C)C)c3ccncc3)n2)o1 (configuration not stated) | inactive: 5.93% | 
59 | Cc1nc2ccc3nc(NC(=O)c4ccc5c(c4)OCCO5)sc3c2s1 |  | inactive
60 | O=C(Nc1ccc(C(F)(F)F)cc1)C1CC(=O)N(c2ccc3c(c2)OCCO3)C1 (configuration not stated) | inactive: -16.2% | 
61 | Cc1c(C(=O)Nc2nccs2)oc2ccc(Br)cc12 |  | inconclusive: 29.1 µM [inhibitor, single point]
62 | CCN(CC)C(=O)C1=C(C)N(Cc2ccc(F)cc2)C(=O)C(CC(=O)NCc2cccc3ccccc23)C1 (configuration not stated) |  | inconclusive: 29.1 µM [inhibitor, single point]
63 | Cc1ccc(S(=O)(=O)N(C)c2ccc3c(ncn3C)c2[N+](=O)[O-])cc1 |  | inconclusive: 29.1 µM [inhibitor, single point]
64 | Nc1c(-c2ccc(Cl)cc2)cnn1-c1cc(C(F)(F)F)cc(C(F)(F)F)c1 |  | inconclusive: 29.1 µM [inhibitor, single point]
65 | CSc1ccc(S(=O)(=O)NCCOc2ccccc2C)cc1 |  | inconclusive: 29.1 µM [inhibitor, single point]
66 | COc1cc(C(=O)N2CCN(c3ccc([N+](=O)[O-])cc3)CC2)ccc1OCc1c(C)noc1C |  | active: 16.4 µM
67 | COc1ccc(C2NC(=O)C(C#N)=C(S)N2c2ccc(C)cc2)cc1OC (configuration not stated) |  | inconclusive: 5.8 µM [inhibitor, partial curve, poor fit]
